The target in experiment [1] is hPD-L1-Fc fusion protein (made in the filing, Example 1) (human) (UniProt Q9NZQ7). Briefly: competitive ELISA: hPD-L1-hFc coated, competitor hCD80-hFc-biotin 100 µg/ml.
For experiment [2] the target is unchanged. Briefly: competitive ELISA: hPD-L1-hIgG coated, competitor hPD-1-hIgG-biotin 10 µg/ml. On the technique in general: ELISA stands for enzyme-linked immunosorbent assay.

Certain results were filed several times, with different values. This is not the full list of results. An entry can have further records. The records of an entry read as repeated measurements (runs, samples, wells or individuals).

Sequence of UniProt Q9NZQ7 (Q9NZQ7 19-238 limits assumed): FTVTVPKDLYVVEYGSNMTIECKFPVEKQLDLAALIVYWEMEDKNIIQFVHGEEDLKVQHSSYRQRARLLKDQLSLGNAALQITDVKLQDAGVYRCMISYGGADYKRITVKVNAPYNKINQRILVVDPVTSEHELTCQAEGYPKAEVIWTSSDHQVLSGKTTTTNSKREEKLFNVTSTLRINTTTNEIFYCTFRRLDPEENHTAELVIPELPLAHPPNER

B1: B50-6 mAb (anti-hPD-L1, human IgG1, lambda) (antibody, part only; not given: human IgG1 and lambda constants, part only)
heavy, part: QVQLQQSGPGLVKPSQTLSLTCAISGDSVSSTKAAWYWIRQSPSRGLEWLGRTYFRSKWYNDYADSVKSRLTINPDTSKNQFSLQLKSVSPEDTAVYYCARGQYTAFDIWGQGTMVTVSS
light, part: QVQLVQSGAEVKKPASSVKVSCTASGGSFSTYAISWVRQAPGQGLEWMGGIIPIFGTTKYAQRFQGRVTITADESTTTAYMELSSLISDDTALYYCTTSRGFSYGWFDYWGQGTLVTVSS
What is called IC50 is the concentration at which inhibition is half-maximal. Low readings indicate inhibition by little substance, high ones a need for much substance. For B1, the IC50 in experiment [1] was 0.553 µg/mL and 11.7 nM; in experiment [2] it was 1.76 µg/mL and 11.7 nM.

Source of the values: patent US20210115143A1.
